# Laboratory results from article PMC13541613.
# The entries are a selection whose mix differs from that of the whole data set. At the low end of the ranking the order means little.
# Biological target: ZNF721 DBD2 (UniProt Q8TF20-2)
# Experiment: HT-SELEX
# Conditions: 20 mM HEPES pH 7, 140 mM KCl, 5 mM NaCl, 1 mM K2HPO4, 2 mM MgSO4, 100 uM EGTA, ZnSO4, 0.1% Tween20; room temperature, 1 h; high values mean tight binding; double strand, one strand shown
row,Sequence,binding signal (relative 10-mer count)
1,CCCCTGCCCC,0.000959
2,CCCCCCCACA,0.00743
3,CTTCATACCA,0.000959
4,ACTTCATACC,0.000479
5,CCCACCAACC,0.00563
6,CCCCCCCCCC,0.000839
7,ACTTCATACT,0.000479
8,AGGTATGAAG,0.000719
9,CGCCCCCCCC,0.000959
10,GCTTCATACC,0.00036
11,CCCGCCCGCC,0.000479
12,CCCCGGCCCC,0.00036
13,GAAGCTATAC,0.00024
14,CCACCTCCCA,0.00384
15,CCCCCGGCCC,0.000719
16,AGTATGAAGC,0.000599
17,AAAGCTATAC,0.00036
18,CGCCGCCCCC,0.000719
19,CACCCCACCC,0.0036

row,Sequence,binding signal (relative 10-mer count)
1,AAGCTATACC,0.000839
2,ATGTGTATGA,0.0018
3,CGGTATGAAG,0.000479
4,ATGTATGAAG,0.000839
5,AGCTTCATAC,0.00012
6,ATACACTTCA,0.00036
7,CCCGCTCCCC,0.000959
8,GAAGTGTATC,0.000839
9,ACTTCATACA,0.000839
10,CTCCGCCCCC,0.000719
11,AAAAAAGCAT,0.067
12,AACCCCCACC,0.000479
13,CCTCCCCGCC,0.00923
14,CCCGCACCCC,0.000959
15,AAGAAGCTAT,0.00036
16,CCAGCCCCCC,0.000959
17,CTTCATACCC,0.000599
18,CCGCCACCAC,0.0036
19,AGCTTCTTTC,0.000839
